Measured values published in publication PMC4336329 (PLoS ONE, 2015).
The whole screen tested about 310,000 compounds, of which about 14,000 (4.5%) showed an effect of 50% or more. Effects have a minus sign here. This is one part of the list. Where a SMILES comes first, the peptide text is derived from it. The star is where a group is joined. Boc = CC(C)(C)OC(=O)*

Target: human ether-à-go-go-related gene (hERG) potassium channel (human, UniProt Q12809)
Assay: primary screen, population patch clamp on CHO cells stably expressing hERG
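Note: peak tail current of the secondary pulse compared with the same well before compound.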

Chain of human ether-à-go-go-related gene (hERG) potassium channel (Q12809 whole entry, looked up): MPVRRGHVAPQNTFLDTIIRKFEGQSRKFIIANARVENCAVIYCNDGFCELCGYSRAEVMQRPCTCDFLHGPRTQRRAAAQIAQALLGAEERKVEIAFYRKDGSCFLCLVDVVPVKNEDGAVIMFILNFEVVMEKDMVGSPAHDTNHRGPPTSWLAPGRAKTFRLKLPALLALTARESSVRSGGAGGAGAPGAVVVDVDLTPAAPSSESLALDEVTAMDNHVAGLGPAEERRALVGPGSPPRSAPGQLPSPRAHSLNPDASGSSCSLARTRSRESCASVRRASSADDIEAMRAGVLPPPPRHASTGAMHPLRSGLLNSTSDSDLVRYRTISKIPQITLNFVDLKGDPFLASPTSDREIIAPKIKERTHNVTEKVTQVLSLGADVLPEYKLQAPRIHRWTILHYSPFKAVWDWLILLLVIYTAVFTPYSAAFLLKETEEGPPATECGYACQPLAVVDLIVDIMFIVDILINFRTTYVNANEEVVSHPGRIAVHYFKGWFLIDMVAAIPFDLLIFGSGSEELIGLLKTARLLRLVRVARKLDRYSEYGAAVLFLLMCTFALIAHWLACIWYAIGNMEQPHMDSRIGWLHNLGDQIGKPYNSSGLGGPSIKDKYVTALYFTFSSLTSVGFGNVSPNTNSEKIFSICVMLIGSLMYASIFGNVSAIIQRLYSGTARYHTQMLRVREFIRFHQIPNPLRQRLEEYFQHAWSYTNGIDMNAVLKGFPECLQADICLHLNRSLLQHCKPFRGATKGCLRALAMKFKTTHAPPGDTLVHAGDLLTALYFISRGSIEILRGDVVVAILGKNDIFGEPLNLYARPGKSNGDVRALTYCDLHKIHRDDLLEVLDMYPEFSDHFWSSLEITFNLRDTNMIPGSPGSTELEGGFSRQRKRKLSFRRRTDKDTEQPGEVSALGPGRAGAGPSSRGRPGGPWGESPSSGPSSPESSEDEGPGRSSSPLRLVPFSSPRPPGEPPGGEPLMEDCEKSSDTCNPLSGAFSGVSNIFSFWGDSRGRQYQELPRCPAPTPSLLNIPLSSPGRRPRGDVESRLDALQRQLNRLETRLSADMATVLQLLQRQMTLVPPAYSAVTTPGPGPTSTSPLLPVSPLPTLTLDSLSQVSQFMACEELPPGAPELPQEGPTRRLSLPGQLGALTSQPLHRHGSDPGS

Point of comparison: `O=C(CC(=O)c1c(F)cccc1Cl)c1ccccc1O`, “hERG current change (%, negative = inhibition) at 10uM” value 6.51%. Against it:
- CN(C)N1C(N)=C(C#N)C(c2ccc(F)cc2)C2=C1CC(C)(C)CC2=O (centres unmarked) — higher, 9.29%
- CCCN(CC(=O)Nc1ccccc1C)C(=O)Cc1cccs1 — lower, 3.25%
- COC(=O)c1c(C)[nH]c(C(=O)N2CCN(c3ccc(OC)cc3)CC2)c1C — lower, 5.7%
- COC(=O)c1cc(NC(=O)/C=C/c2ccc3c(c2)OCO3)cc(C(=O)OC)c1 — lower, -3.81%
- NCCN1CCN(CC(=O)N2c3ccccc3C(=O)Nc3cccnc32)CC1 — higher, 10.7%
- NNC(=O)c1[nH]c2ccc(Br)cc2c1-c1ccccc1 — lower, -2.55%
- COc1ccc(CN2CC(C(=O)NCCN3CCOCC3)CC2=O)cc1 (centres unmarked) — higher, 6.62%
- CC(C)NC(=O)NC(=O)COc1ccc(Br)cc1Br — lower, 4.33%
- CC(C)C(=O)NCCc1c[nH]c2ccccc12 — higher, 9.96%
- COc1ccc(-c2nc(C#N)c(NCC3CCCO3)o2)cc1 (centres unmarked) — lower, -8.44%
- Cc1ccc(NC(=O)/C(CN(C)C)=N\O)cc1 — lower, 5.33%
- CC(C)CC(NC(=O)C(NC(=O)C1CCC(=O)N1C(=O)OCc1ccccc1)C(C)C)C(=O)N1CCCC1C(N)=O (centres unmarked) — higher, 24.7%
- NC(=O)CSc1nc2ccccc2n1Cc1ccccc1 — lower, -8.74%
- COc1ccc(NC(=S)NCc2ccc3c(c2)cc(C)n3C)cc1 — lower, 5.5%
- CSCCC(NC(=O)c1ccco1)C(=O)N1CC(C)OC(C)C1 (centres unmarked) — lower, -18.9%
- Nc1ccc(C(=O)n2c3ccccc3c3ccccc32)cc1 — higher, 18.8%
- Oc1oc(-c2cccc3ccccc23)nc1/C=N/c1nccs1 — lower, -2.84%
- Cc1ccc(S(=O)(=O)N2c3ccccc3NC(=O)C2CC(=O)Nc2ccccc2)cc1 (centres unmarked) — lower, 6.45%
- Cc1c(C(=O)OCC(=O)NCc2ccco2)oc2ccccc12 — lower, 2.46%
- O=C(C(Cc1ccccc1)n1cccc1)N1CCN(c2cccc(Cl)c2)CC1 (centres unmarked) — lower, -14.7%
- COc1ccc(S(=O)(=O)N2CCN(Cc3ccc4c(c3)OCO4)CC2)c2ccccc12 — higher, 8.89%
- O=C(CSc1nnc(-c2cccnc2)n1-c1ccc(SC(F)F)cc1)N1CCCc2ccccc21 — lower, -7.29%
- O=C(OCC(=O)N1CCC(c2ccccc2)=N1)c1ccc([N+](=O)[O-])s1 — lower, -34.7%
- O=C(Nc1ccc(NC(=O)c2ccco2)c(Cl)c1)c1ccccc1 — lower, -4.14%
- Cc1cc(N2CCCCC2)nc2c(C)cccc12 — higher, 15%
- Cl.Fc1ccc(Nc2nc(N3CCOCC3)nc(N3CCOCC3)n2)cc1Cl — higher, 7.95%
- O=C(CSc1nnc(CNC(=O)c2ccccc2F)o1)NC1CCCC1 — higher, 10.7%
- Cc1ccc(S(=O)(=O)N(C)c2ccc(OCC(=O)Nc3cccc(-n4cnnn4)c3C)cc2)cc1 — lower, -32.1%
- COc1ccc(OC)c2[nH]c(=O)c(CCNS(=O)(=O)c3ccc(Cl)cc3)cc12 — lower, -25.4%
- CCC(C)N(C(=O)COc1ccccc1C#N)C1CCS(=O)(=O)C1 (centres unmarked) — lower, -4.56%
- Br.Fc1cccc(CNCc2ccc3c(c2)OCO3)c1 — lower, 1.44%
- CCCc1nc2c(=O)n(C)c(=O)[nH]c2n1C — lower, 4.79%
- CCCNC(=S)N1CCC(n2cnc3ccccc32)CC1 — lower, -36.4%
- CCCNc1nc2c(c(=O)n(C)c(=O)n2C)n1Cc1ccc(F)cc1 — lower, -12.8%
- COC(=O)C1=C(C)N(C)C(=S)N(C)C1c1cccc(Br)c1 (centres unmarked) — lower, -14.3%
- Oc1cccc(/C=C/c2ccc3cccc(O)c3n2)c1 — higher, 17.2%
- FC(F)(F)c1ccc(C2[C@H]3CN(CC4CCCCC4)[C@H](c4ccccc4)C34CC2(c2cccnc2)C4)cc1 (some centres unmarked) — lower, 0.391%
- CCC(C)C(NC(=O)OC(C)(C)C)C(=O)NC(C(=O)NC(C)C(N)=O)C(C)C (stereo not drawn) (Boc-Ile-Val-Ala-NH2; configuration not given here) — higher, 24.3%
- CC(C)c1ccc(OCC(O)CNC(C)c2ccccc2)cc1.Cl (centres unmarked) — lower, -65.3%
- N#CC1=C(N)Oc2n[nH]c(-c3cccs3)c2C1C1C=CCCC1 (centres unmarked) — higher, 8.52%
- O=C(COC(=O)CNC(=O)c1ccccc1F)NCC(F)(F)F — higher, 9.36%
- Cc1ncoc1C(=O)Nc1cccc(Cl)c1 — lower, -7.91%
- COC(=O)c1ccc2c(=O)n(Cc3ccc4c(c3)OCO4)c(SCC(=O)N3CCCC3)nc2c1 — lower, -52.4%
